This is one part of the list. These are noisy estimates, calculated here from bound and input reads.

The target in this assay is T1, Pho4 (S. cerevisiae) (UniProt P07270).
T1 sequence: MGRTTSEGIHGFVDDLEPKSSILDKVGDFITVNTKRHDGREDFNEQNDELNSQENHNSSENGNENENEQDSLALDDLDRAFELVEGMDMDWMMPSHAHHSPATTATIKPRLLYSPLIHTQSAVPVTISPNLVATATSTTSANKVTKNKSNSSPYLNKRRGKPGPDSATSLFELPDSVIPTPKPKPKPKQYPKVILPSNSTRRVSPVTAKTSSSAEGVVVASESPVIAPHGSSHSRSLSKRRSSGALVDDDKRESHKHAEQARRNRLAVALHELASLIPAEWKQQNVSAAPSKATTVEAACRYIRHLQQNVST
As to the kind of experiment: relative binding free energy (BET-seq); higher = weaker binding. Particulars: reference: library average.
In the case of ATCGTCACGTGATTTG, the “relative binding free energy” value was found to be 0.879 kJ/mol.

As to GGGGTCACGTGCTAGA, the “relative binding free energy” value stood at 0.879 kJ/mol.

For the sequence GGTGGCACGTGTATCA, the “relative binding free energy” value was -0.418 kJ/mol.

With TAGGTCACGTGGCGGG, the “relative binding free energy” value stood at 0.251 kJ/mol.

AGGTGCACGTGTTTAC: the “relative binding free energy” value was -0.586 kJ/mol.

Regarding ATTAGCACGTGGCATT, the “relative binding free energy” value was -0.377 kJ/mol.

Take ATAGACACGTGGGCGT: the “relative binding free energy” value is -0.502 kJ/mol.

Consider TATAGCACGTGTTTAG, for which the “relative binding free energy” value was -0.628 kJ/mol.

Turning to TGGTCCACGTGTTGTG, the “relative binding free energy” value was 0.126 kJ/mol.

With AAATGCACGTGTTATA, the “relative binding free energy” value amounted to 0.335 kJ/mol.

With TCGGACACGTGAGTTT, the “relative binding free energy” value stood at 1.3 kJ/mol.

Turning to TTTTTCACGTGTAAAG, the “relative binding free energy” value is 1.21 kJ/mol.

As for TCGGGCACGTGGCAGG, the “relative binding free energy” value was -0.377 kJ/mol.

Consider AGGGTCACGTGTTGAT, for which the “relative binding free energy” value was 0.46 kJ/mol.

For GGGATCACGTGACGTG, the “relative binding free energy” value came to 1.13 kJ/mol.

As to TTATACACGTGTAAGA, the “relative binding free energy” value worked out at 0.586 kJ/mol.

For the sequence GAGGTCACGTGTGCGA, the “relative binding free energy” value stood at 0.711 kJ/mol.

In the case of GGAACCACGTGCGGGG, the “relative binding free energy” value stood at 0.126 kJ/mol.

For TATTCCACGTGATTGT, the “relative binding free energy” value came to 0.586 kJ/mol.

With TGGTTCACGTGCAGGT, the “relative binding free energy” value worked out at 1.17 kJ/mol.

Consider GAGCGCACGTGGAGGA, for which the “relative binding free energy” value was -0.126 kJ/mol.

Turning to TGGATCACGTGAGTTT, the “relative binding free energy” value turned out to be 1.88 kJ/mol.

In the case of AGTAGCACGTGGCTGG, the “relative binding free energy” value is -0.669 kJ/mol.

As for GAAGGCACGTGTGGGG, the “relative binding free energy” value was -0.167 kJ/mol.

In the case of ATATGCACGTGAGGGT, the “relative binding free energy” value worked out at 0.502 kJ/mol.

Take GTGATCACGTGGTAGT: the “relative binding free energy” value came to 0.418 kJ/mol.

For the sequence GACGCCACGTGGTGTG, the “relative binding free energy” value stood at 0.209 kJ/mol.

Regarding TGTATCACGTGGAAGG, the “relative binding free energy” value came to 0.795 kJ/mol.

Turning to TAGTTCACGTGGGCTA, the “relative binding free energy” value worked out at 0.46 kJ/mol.

On to GATAACACGTGGGGGG, for which the “relative binding free energy” value amounted to 0.0418 kJ/mol.

TGCGTCACGTGGTTTC: the “relative binding free energy” value is 0.628 kJ/mol.

As for TCTTCCACGTGTGGGG, the “relative binding free energy” value is 0.335 kJ/mol.

For TGGTGCACGTGGCTTC, the “relative binding free energy” value is -0.167 kJ/mol.

With GTCAGCACGTGGCTGG, the “relative binding free energy” value was -0.586 kJ/mol.

In the case of GTGCACACGTGGGTAG, the “relative binding free energy” value was -0.837 kJ/mol.

Consider GGCTACACGTGGTGTT, for which the “relative binding free energy” value worked out at 0.669 kJ/mol.

Take CTGGGCACGTGGCAGT: the “relative binding free energy” value is -0.795 kJ/mol.

Turning to ATAGGCACGTGGGAAT, the “relative binding free energy” value was -0.92 kJ/mol.

Turning to TGGTGCACGTGATAGT, the “relative binding free energy” value stood at 0.418 kJ/mol.

With TATTTCACGTGTAGAC, the “relative binding free energy” value worked out at 1.97 kJ/mol.

As to ATGTTCACGTGTAATC, the “relative binding free energy” value amounted to 1 kJ/mol.

As for GGGATCACGTGGCGTC, the “relative binding free energy” value amounted to 0.795 kJ/mol.

For the sequence GTGTTCACGTGTTCGG, the “relative binding free energy” value amounted to 1.59 kJ/mol.

AGTATCACGTGAATGT: the “relative binding free energy” value was 1.38 kJ/mol.

As for GGTATCACGTGTGTTC, the “relative binding free energy” value worked out at 1 kJ/mol.

With GGATGCACGTGTTTCG, the “relative binding free energy” value is -0.251 kJ/mol.

For the sequence ATGGGCACGTGGAGAG, the “relative binding free energy” value was -0.502 kJ/mol.

For the sequence GATAACACGTGGTTTT, the “relative binding free energy” value was -0.209 kJ/mol.

As to GTGTTCACGTGAAGGC, the “relative binding free energy” value is 1.67 kJ/mol.

Regarding TTGTACACGTGCGTTC, the “relative binding free energy” value came to 0.418 kJ/mol.

CTAGACACGTGAGGGT: the “relative binding free energy” value was found to be 1.13 kJ/mol.

Take CTTATCACGTGGTTGA: the “relative binding free energy” value came to 0.377 kJ/mol.

As for TTATTCACGTGTACTA, the “relative binding free energy” value came out at 0.753 kJ/mol.

Regarding GTTATCACGTGAATCT, the “relative binding free energy” value was found to be 2.05 kJ/mol.

For the sequence ATGATCACGTGTATTA, the “relative binding free energy” value amounted to 0.711 kJ/mol.

As for ATTAGCACGTGGAGGC, the “relative binding free energy” value is -0.293 kJ/mol.

Turning to GGTAGCACGTGATTTA, the “relative binding free energy” value came out at 0.209 kJ/mol.

In the case of TAGATCACGTGAGTTA, the “relative binding free energy” value was 1.67 kJ/mol.

For TTTAACACGTGGTGTC, the “relative binding free energy” value was -0.628 kJ/mol.

Consider CATGTCACGTGAGCGG, for which the “relative binding free energy” value turned out to be 0.628 kJ/mol.

Regarding GACATCACGTGGGGCG, the “relative binding free energy” value turned out to be 0.628 kJ/mol.

With TTAGACACGTGGATAG, the “relative binding free energy” value worked out at 0.544 kJ/mol.

With AGTAGCACGTGGAAGA, the “relative binding free energy” value turned out to be 0.126 kJ/mol.

Take TGTGCCACGTGAAATG: the “relative binding free energy” value was 0.837 kJ/mol.

In the case of GCTATCACGTGGGGGC, the “relative binding free energy” value is 0.502 kJ/mol.

Regarding TAGACCACGTGGAGTG, the “relative binding free energy” value came out at 0 kJ/mol.

Take AGTTACACGTGGGTTT: the “relative binding free energy” value was -0.418 kJ/mol.

With GGTGGCACGTGTATAT, the “relative binding free energy” value was -0.209 kJ/mol.

On to GAAGTCACGTGGTGCA, for which the “relative binding free energy” value amounted to 0.46 kJ/mol.

CGGCTCACGTGTAGGT: the “relative binding free energy” value was found to be 0.795 kJ/mol.

In the case of GGTTACACGTGGTATG, the “relative binding free energy” value amounted to 0.293 kJ/mol.

Take TTTATCACGTGTTGGT: the “relative binding free energy” value was 0.544 kJ/mol.

Regarding ATTCACACGTGTTGGA, the “relative binding free energy” value is 0.795 kJ/mol.

On to ACGTGCACGTGGGAAT, for which the “relative binding free energy” value is -0.293 kJ/mol.

As to TTCGTCACGTGTGGGA, the “relative binding free energy” value came out at 0.628 kJ/mol.

Turning to AAAGGCACGTGGAATG, the “relative binding free energy” value amounted to 0 kJ/mol.

As for TTGTCCACGTGGGTCT, the “relative binding free energy” value is -0.251 kJ/mol.

Regarding TTATTCACGTGGCGCA, the “relative binding free energy” value stood at 0.92 kJ/mol.

Take TTTGCCACGTGGATCG: the “relative binding free energy” value worked out at 0.0418 kJ/mol.

Regarding GTGGGCACGTGAGTGC, the “relative binding free energy” value came to 0.628 kJ/mol.

As for ATTTACACGTGGTGTG, the “relative binding free energy” value was found to be 0.251 kJ/mol.

Take TCTTACACGTGGGGTT: the “relative binding free energy” value was -0.0837 kJ/mol.

For GTTGCCACGTGTTGGG, the “relative binding free energy” value stood at 0.0837 kJ/mol.

As for GTTTTCACGTGTTATA, the “relative binding free energy” value came to 1.26 kJ/mol.

For the sequence TTGTGCACGTGCGTGC, the “relative binding free energy” value was -0.586 kJ/mol.

For the sequence CGGGCCACGTGTGGGC, the “relative binding free energy” value worked out at 0.293 kJ/mol.

In the case of TGGGTCACGTGTTCCA, the “relative binding free energy” value was 0.377 kJ/mol.

Consider CTGAGCACGTGGTGGG, for which the “relative binding free energy” value is -0.669 kJ/mol.

Take GTAGTCACGTGGTGAA: the “relative binding free energy” value is 0.502 kJ/mol.

For AAGGGCACGTGTTGGT, the “relative binding free energy” value was -0.46 kJ/mol.

AGAATCACGTGAGTTA: the “relative binding free energy” value turned out to be 1.76 kJ/mol.

For the sequence TGTTGCACGTGATAAC, the “relative binding free energy” value stood at 0.92 kJ/mol.

Regarding TAGATCACGTGATGAG, the “relative binding free energy” value is 1.46 kJ/mol.

On to CTGCACACGTGGAGGG, for which the “relative binding free energy” value is 0.0837 kJ/mol.

Take ATGAACACGTGGTATG: the “relative binding free energy” value is -0.418 kJ/mol.

In the case of GATAACACGTGTGTGT, the “relative binding free energy” value stood at 0 kJ/mol.

Turning to TTAGCCACGTGGGTTT, the “relative binding free energy” value is -1.34 kJ/mol.

With TTTTTCACGTGTGGGC, the “relative binding free energy” value was found to be 1.55 kJ/mol.

On to TTGCGCACGTGGTACG, for which the “relative binding free energy” value was -0.837 kJ/mol.

Regarding AGTGTCACGTGTTGCG, the “relative binding free energy” value amounted to 0.544 kJ/mol.

As to TGGGACACGTGGCTTC, the “relative binding free energy” value is 0.335 kJ/mol.

Turning to AAGGGCACGTGTTTGC, the “relative binding free energy” value is -0.753 kJ/mol.

On to TGCGTCACGTGTATCG, for which the “relative binding free energy” value amounted to 0.0837 kJ/mol.

On to TAGCTCACGTGGGGAG, for which the “relative binding free energy” value was 0 kJ/mol.

Consider TCTTACACGTGTTTTG, for which the “relative binding free energy” value came to 0.0418 kJ/mol.

In the case of GCTGGCACGTGTGTTG, the “relative binding free energy” value was -0.0418 kJ/mol.

Consider GTTCGCACGTGGTCTA, for which the “relative binding free energy” value is -0.502 kJ/mol.

Consider GCATTCACGTGTTGAG, for which the “relative binding free energy” value worked out at 1.8 kJ/mol.

TGGTTCACGTGCTAGC: the “relative binding free energy” value was determined as 1.63 kJ/mol.

With GGTATCACGTGCATTG, the “relative binding free energy” value is 0.753 kJ/mol.

Turning to ATTGCCACGTGATTAG, the “relative binding free energy” value came to 0.586 kJ/mol.

Consider GATATCACGTGATATG, for which the “relative binding free energy” value turned out to be 0.628 kJ/mol.

With TAGGACACGTGCGCGT, the “relative binding free energy” value was determined as 0 kJ/mol.

In the case of GTGGTCACGTGCGGGG, the “relative binding free energy” value was 0.335 kJ/mol.

Consider GGAGTCACGTGGTTGG, for which the “relative binding free energy” value is 0.418 kJ/mol.

The record behind these values is the BET-seq Pho4 binding data (Le et al. 2018).
